# Out of some 310,000 compounds screened, about 14,000 (4.5%) showed an effect of 50% or more. The effect is printed as a negative number. This is one part of the list.
# Target: human ether-à-go-go-related gene (hERG) potassium channel (human, UniProt Q12809)
# Assay: primary screen, population patch clamp on CHO cells stably expressing hERG
# 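Further: peak tail current of the secondary pulse compared with the same well before compound.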
# Sequence of human ether-à-go-go-related gene (hERG) potassium channel (Q12809 whole entry, looked up): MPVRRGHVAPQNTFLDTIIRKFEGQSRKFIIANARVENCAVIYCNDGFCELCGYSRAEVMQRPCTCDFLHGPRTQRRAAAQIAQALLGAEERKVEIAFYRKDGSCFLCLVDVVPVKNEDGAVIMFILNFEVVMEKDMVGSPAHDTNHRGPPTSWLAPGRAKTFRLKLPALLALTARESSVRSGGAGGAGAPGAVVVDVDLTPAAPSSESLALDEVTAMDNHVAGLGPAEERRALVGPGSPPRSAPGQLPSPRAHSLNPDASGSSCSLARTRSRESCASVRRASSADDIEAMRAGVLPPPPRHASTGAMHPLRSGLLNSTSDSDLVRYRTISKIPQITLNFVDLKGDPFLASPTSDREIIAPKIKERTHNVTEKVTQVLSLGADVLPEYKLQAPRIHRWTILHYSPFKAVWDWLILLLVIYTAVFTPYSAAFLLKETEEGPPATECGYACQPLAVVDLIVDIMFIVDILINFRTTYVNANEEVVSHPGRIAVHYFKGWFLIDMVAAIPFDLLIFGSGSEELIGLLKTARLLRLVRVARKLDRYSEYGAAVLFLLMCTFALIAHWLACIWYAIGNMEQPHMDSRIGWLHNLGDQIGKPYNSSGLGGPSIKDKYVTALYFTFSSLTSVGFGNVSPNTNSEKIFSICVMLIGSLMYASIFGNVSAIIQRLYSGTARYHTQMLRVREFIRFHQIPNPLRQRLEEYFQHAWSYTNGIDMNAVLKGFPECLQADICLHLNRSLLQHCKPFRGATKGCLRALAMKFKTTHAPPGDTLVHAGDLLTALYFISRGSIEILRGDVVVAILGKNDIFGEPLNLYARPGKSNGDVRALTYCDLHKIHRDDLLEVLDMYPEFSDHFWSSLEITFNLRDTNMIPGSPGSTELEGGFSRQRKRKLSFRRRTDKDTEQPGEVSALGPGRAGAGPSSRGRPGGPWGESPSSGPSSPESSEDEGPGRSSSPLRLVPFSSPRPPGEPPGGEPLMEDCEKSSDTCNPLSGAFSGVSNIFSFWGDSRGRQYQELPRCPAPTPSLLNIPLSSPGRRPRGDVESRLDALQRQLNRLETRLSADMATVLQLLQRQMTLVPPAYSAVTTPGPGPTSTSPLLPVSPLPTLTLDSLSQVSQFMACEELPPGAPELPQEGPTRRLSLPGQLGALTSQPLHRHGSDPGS
row,SMILES,"hERG current change (%, negative = inhibition) at 10uM [%]"
1,Cc1ccc(NS(=O)(=O)c2ccc(C(=O)NNC(=O)c3ccccc3O)cc2)cc1,0.906
2,CCc1ccc2c(c1)CCCN2C(=O)c1ccccc1C(=O)O,-33.2
3,CCN(CC(=O)Nc1c(F)cccc1F)C(=O)C1CC(=O)N(c2ccccc2OC)C1 (stereo not drawn),12.1
4,COc1cc(CNc2ccc(N3CCCC3)cc2)ccc1OCc1ccccc1,16.1
5,Cc1sc2ncnc(SCC(=O)c3ccc(Cl)s3)c2c1C,18.3
6,Nc1nc(N)nc(-c2ccc(Cl)c(Cl)c2)n1,-5.05
7,NC(=O)Nc1ccccc1C(=O)NCCc1ccccc1,-2.67
8,CN(C(=O)c1cncc(Br)c1)C1C2CC3CC(C2)CC1C3 (stereo not drawn),3.35
9,CN1CCC(O)(c2cccs2)C(C(=O)c2cccs2)C1 (stereo not drawn),11.1
10,Cc1ccccc1N(CC(=O)N/N=C/c1ccc(N(C)C)cc1)C(=O)c1ccccc1,-0.173
11,CC(=O)Nc1ccc(C(=O)NCCCOC(C)C)cc1,9.69
12,Cc1ccc(S(=O)(=O)N(C)c2nc3ccccc3[nH]c2=S)cc1,4.41
13,Cc1nc2ncccn2c1-c1csc(Nc2cccc(C(=O)O)c2)n1,5.55
14,CCc1cc2c(=O)c(-c3nc4ccccc4n3C)c(COCC(=O)O)oc2cc1OC(=O)C(C)(C)C,8.72
15,Nc1ccc(C(=O)OCCc2ccccc2)cc1,9.38
16,CCCCC(=O)N(c1ccc(C(=O)O)cc1)c1nc(-c2ccc(Cl)cc2)c(CC)s1,-9.58
17,CCOc1cc(/C=N/NC(=O)COc2ccc(Cl)cc2)ccc1OS(=O)(=O)c1ccccc1,14.9
18,Cn1c(=O)n(CC(=O)NCc2cccnc2)c2ccccc21,-10.5
19,CCOC(=O)c1c(NC(=O)CSc2nnc(-c3cccc(C)c3)n2CC)sc(C(C)=O)c1C,-18.9

row,SMILES,"hERG current change (%, negative = inhibition) at 10uM [%]"
1,COc1ccc(NC(=O)Nc2ccc3nonc3c2)cc1,3.37
2,C=C(C)CNC(=O)CCc1nnc(Cc2cccc(C(F)(F)F)c2)o1,15.7
3,CC(NC(=O)CSc1cccc(C(F)(F)F)c1)c1ccccc1 (stereo not drawn),-1.75
4,CSc1nc2nc3c(cc2c(=O)n1-c1cccc(C)c1)COC(C)(C)C3,9.49
5,CC(C)CC(=O)c1c[nH]c(C(=O)NCc2cccnc2)c1,8.11
6,CCCCOc1ccc(CN2CCCCC2)cc1,-16.5
7,CCCCN(CC)C(=O)c1ccc(-c2ccccc2)cc1,-14.8
8,COc1ccc(CNC(=O)CSc2ccsc2[N+](=O)[O-])cc1,-10.2
9,CCOC(=O)C(C(=O)OCC)C(CC(=O)C1CC1)c1ccccc1 (stereo not drawn),-0.081
10,CC(=O)N1N=C(c2ccccc2)OC1c1cccnc1 (stereo not drawn),-9.41
11,Cc1cc(C(=O)NN)c(Cl)cc1Cl,11.9
12,COc1ccc(/C(C)=N/NC(=O)Cn2nc([N+](=O)[O-])cc2C)cc1,12.9
13,Cn1c(SCC(=O)NCC2CCCO2)ncc(C(=O)Nc2ccccc2)c1=O (stereo not drawn),-22.8
14,Cc1nnsc1C(=O)NNc1ccc(C(C)(C)C)cc1,14.1
15,COc1ccccc1NC(=O)N(CCN1CCCC1)Cc1cc2cc(C)ccc2[nH]c1=O,-64.8
16,COc1ccccc1-n1c(SCC(=O)N2CCCC2)nnc1-c1ccccc1,10.2
17,CCn1c(COc2cccc(OC)c2)nnc1SCC(=O)Nc1ccccc1C(=O)OC,-16.5
18,CCOC(=O)N1CCN(C(=O)CSCc2nc(-c3ccccc3F)oc2C)CC1,-7.27
19,O=C(CCc1ccc(S(=O)(=O)N2CCOCC2)cc1)N/N=C/c1cccc(O)c1,-3.74

row,SMILES,"hERG current change (%, negative = inhibition) at 10uM [%]"
1,COc1cc([N+](=O)[O-])ccc1NC(=O)CCS(=O)(=O)c1ccc2c(c1)n(C)c(=O)c(=O)n2C,3.37
2,CC1CCN(CCCOc2ccc(OCc3ccccc3)cc2)CC1.O=C(O)C(=O)O,-71.4
3,COc1ccccc1NC(=O)N1CCC(c2nc3ccccc3o2)CC1,-6.16
4,Cc1cc(Cl)c2oc(C(=O)NC3CCC(O)CC3)c(C)c2c1 (stereo not drawn),15.6
5,O=C(NCc1c(F)cccc1F)c1cc(COc2c(F)cccc2F)on1,10.7
6,Cc1nn(-c2ccccc2)c(C)c1NC(=O)c1cccs1,15.5
7,CCOCCn1c(=O)c2c(nc3n2CCCN3Cc2ccccc2)n(C)c1=O,0.204
8,Clc1ccc2c(c1)C(N1CCNCC1)Cc1ccccc1S2.O=C(O)/C=C\C(=O)O (stereo not drawn),-54.3
9,COC(=O)c1ccc(COc2ccc(NC(C)=O)cc2)o1,4.32
10,Cc1cccc(C(C)(C)C)c1OCCOCCN1CCCC1,-20.6
11,Cc1ccc(-c2cc(C(=O)N/N=C/c3ccco3)n[nH]2)s1,-22.8
12,Cc1c(NC(=O)c2nn3c(c2Br)NC(c2ccccc2)CC3C(F)(F)F)c(=O)n(-c2ccccc2)n1C (stereo not drawn),-0.849
13,O=S(=O)(c1ccccc1)[C@@]1(c2ccccc2)C[C@@H]2ON=C(c3cccc(-c4ccccc4)c3)[C@@H]2C1,0.51
14,CCCc1cc(=O)[nH]c(=S)[nH]1,22.4
15,Cc1ccc(CNC(=O)C2CCC(CNS(=O)(=O)c3cccc4cccnc34)CC2)cc1 (stereo not drawn),2.76
16,COc1cccc(CN2CCN(Cc3c(C)nn(C(C)C)c3C)CC2CCO)c1 (stereo not drawn),-2.68
17,CC(C)(C)CC(=O)NC(=S)Nc1ccccc1[N+](=O)[O-],12.2
18,C=CCNC(=O)C(C)N1C(=O)c2ccccc2C1=O (stereo not drawn),10.2
19,Nc1nc(N)n(-c2ccccc2)c(=Nc2ccccc2)n1,11.4

# — article PMC4336329 (PLoS ONE, 2015)
